The results in this text go back to patent publication US20230122503A1, “ANTI-PSMA RADIOCONJUGATES AND USES THEREOF” (Janssen Biotech, Inc., priority 2021, published 2023).

For this test, the target named is T1, recombinant human ECD (human PSMA) (Homo sapiens, UniProt Q04609).
T1 construct: made in house
Briefly: SPR (BIACORE 8K) binding of anti-PSMA antibodies to recombinant human PSMA ECD. As to conditions: antibody captured on anti-Fc C1 chip, PSMA antigen titrated, 1:1 Langmuir model. On the procedure: The binding affinity of purified anti-PSMA antibodies to the recombinant human ECD was determined by surface plasmon resonance (SPR) using a BIACORE 8K instrument. The antibodies were captured on a goat anti-Fc antibody-modified C1 chip and titrated with 3-fold serial dilutions of PSMA antigen spanning concentrations of 1 nM to 11.1 nM. The association and dissociation were monitored for 3 and 15 minutes, respectively, using a flow rate of 50 μL/min. Raw binding data was referenced by subtracting the analyte binding signals from blanks and analyzed using a 1:1 Langmuir binding model using the Biacore Insight evaluation software to obtain the kinetics which were used to calculate the binding affinity.

T1 sequence (Q04609 with tags, fused parts or gaps): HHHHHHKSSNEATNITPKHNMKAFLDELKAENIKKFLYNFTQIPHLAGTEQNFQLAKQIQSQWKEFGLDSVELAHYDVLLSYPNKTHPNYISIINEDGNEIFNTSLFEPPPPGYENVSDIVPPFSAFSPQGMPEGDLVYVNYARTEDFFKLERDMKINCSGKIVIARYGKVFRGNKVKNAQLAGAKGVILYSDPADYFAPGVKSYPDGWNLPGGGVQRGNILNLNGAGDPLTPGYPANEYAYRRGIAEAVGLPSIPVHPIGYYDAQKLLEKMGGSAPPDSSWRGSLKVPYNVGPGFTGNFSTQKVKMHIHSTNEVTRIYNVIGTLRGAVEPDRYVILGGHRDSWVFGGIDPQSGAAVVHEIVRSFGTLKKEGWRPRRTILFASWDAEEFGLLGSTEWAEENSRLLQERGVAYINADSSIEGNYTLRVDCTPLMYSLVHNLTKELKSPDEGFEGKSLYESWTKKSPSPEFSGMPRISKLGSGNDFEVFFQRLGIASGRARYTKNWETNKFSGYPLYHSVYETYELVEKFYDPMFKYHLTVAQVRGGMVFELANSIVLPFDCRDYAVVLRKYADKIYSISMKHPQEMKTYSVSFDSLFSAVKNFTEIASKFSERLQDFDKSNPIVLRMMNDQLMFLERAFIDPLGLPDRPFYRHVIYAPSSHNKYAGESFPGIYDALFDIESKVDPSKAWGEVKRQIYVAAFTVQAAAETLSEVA

B1: PSMB1157 (antibody)
heavy: EVQLVESGGGVVQPGRSLRLSCAASVRTFSGYGMHWVRQVPGKGLEWVAVISYDGSNRYYADSVKGRFTISRDNSKNTLYLQMNSLRTEDTAVYYCARDGNWGSLDLYFDLWGRGTLVTVSS[human IgG1 constant region not given here]
light: QSVLTQPPSVSGAPGQRVTISCTGSSSNIGADYDVHWYQQLPGTAPKLLIYVNNNRPSGVPDRFSGSRSGTSASLAITGLQADDEADYYCQSYDNTLSGVVFGGGTKLTVLGQPKAAPSVTLFPPSSEELQANKATLVCLISDFYPGAVTVAWKADSSPVKAGVETTTPSKQSNNKYAASSYLSLTPEQWKSHRSYSCQVTHEGSTVEKTVAPTECS
For the molecule B1, the Koff was found to be 0.000274 s⁻¹ and the Kon was 194000 M⁻¹ s⁻¹.
